# Results taken from the supplement of paper PMC12067093, “Discovery and optimisation of a covalent ligand for TRIM25 and its application to targeted protein ubiquitination” (Chemical Science, 2025).
# About 21,000 targets were measured; listed, in parts, are those with the largest changes and a random draw of the rest.
# Compound: CC1Cc2ccccc2N1C(=O)C1CCCN(C1)C(=O)CCl (mixture of isomers) [TRIM25 ligand 11 (diastereomer mixture)]
# Test: probe-labelled cysteine peptide fold change vs DMSO (competition) (log2 fold change); higher = less target engagement (more negative = stronger competition)
# Conditions: THP-1, incubation time: 4 h
# 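Note: competitive chemoproteomic profiling in live THP-1 cells with an iodoacetamide desthiobiotin (IA-DTB) probe, comparing probe-labelled peptide intensities in compound-treated cells against DMSO-treated controls.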
# Sequence of UniProt P22087 (P22087 whole entry, looked up): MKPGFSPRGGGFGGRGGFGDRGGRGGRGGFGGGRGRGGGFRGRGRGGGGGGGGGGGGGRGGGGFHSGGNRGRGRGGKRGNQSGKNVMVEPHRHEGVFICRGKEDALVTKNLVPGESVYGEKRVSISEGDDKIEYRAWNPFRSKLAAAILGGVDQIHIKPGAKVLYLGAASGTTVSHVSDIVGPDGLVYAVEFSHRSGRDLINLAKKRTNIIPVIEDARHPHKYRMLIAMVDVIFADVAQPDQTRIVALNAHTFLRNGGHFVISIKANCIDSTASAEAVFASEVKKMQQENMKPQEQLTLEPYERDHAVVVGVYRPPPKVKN
# Sequence of UniProt O95363 (O95363 whole entry): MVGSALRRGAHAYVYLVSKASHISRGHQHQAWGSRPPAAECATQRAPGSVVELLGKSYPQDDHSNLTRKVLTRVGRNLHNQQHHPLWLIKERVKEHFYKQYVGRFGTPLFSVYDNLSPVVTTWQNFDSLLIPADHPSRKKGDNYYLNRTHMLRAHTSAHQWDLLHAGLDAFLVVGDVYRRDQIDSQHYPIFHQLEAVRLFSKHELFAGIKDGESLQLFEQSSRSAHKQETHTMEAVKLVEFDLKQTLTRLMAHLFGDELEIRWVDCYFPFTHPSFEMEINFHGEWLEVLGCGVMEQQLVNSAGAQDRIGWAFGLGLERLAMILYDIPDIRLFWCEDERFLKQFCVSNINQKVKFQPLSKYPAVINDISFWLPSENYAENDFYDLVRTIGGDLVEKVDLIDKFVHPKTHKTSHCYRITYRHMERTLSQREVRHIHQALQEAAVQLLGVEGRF
# Sequence of UniProt P35637 (P35637 whole entry, looked up): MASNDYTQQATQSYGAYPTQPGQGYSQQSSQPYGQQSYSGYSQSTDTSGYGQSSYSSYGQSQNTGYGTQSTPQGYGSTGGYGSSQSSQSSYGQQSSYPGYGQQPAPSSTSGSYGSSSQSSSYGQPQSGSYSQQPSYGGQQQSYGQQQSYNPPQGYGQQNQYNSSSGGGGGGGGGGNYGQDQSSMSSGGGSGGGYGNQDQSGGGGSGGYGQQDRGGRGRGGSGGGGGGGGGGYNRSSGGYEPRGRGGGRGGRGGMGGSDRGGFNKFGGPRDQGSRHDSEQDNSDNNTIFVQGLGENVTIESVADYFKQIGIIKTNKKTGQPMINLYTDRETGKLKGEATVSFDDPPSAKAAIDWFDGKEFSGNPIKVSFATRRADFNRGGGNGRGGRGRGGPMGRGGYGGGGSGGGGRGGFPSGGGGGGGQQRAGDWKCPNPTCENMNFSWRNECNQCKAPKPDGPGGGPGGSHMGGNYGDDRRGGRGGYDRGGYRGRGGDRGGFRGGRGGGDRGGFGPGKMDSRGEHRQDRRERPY
# Sequence of UniProt Q92520 (Q92520 whole entry): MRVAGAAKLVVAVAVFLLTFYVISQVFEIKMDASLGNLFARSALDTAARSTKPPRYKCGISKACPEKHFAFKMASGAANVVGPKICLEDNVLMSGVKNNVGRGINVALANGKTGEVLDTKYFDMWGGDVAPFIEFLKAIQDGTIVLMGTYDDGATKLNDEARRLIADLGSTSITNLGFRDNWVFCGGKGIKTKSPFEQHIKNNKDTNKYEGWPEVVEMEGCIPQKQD
# Sequence of UniProt Q9GZT9 (Q9GZT9 whole entry, looked up): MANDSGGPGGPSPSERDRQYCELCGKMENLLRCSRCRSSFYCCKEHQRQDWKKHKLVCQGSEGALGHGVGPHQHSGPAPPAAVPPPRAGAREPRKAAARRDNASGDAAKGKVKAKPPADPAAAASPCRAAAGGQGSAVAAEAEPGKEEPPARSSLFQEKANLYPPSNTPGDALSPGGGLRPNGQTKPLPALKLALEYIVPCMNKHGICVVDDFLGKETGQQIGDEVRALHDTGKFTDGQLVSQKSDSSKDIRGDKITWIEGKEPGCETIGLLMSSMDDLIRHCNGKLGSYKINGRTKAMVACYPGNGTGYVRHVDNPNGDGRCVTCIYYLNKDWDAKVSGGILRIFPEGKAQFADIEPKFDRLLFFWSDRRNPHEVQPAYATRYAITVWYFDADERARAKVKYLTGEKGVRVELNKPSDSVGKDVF
# Sequence of UniProt Q01469 (Q01469 whole entry, looked up): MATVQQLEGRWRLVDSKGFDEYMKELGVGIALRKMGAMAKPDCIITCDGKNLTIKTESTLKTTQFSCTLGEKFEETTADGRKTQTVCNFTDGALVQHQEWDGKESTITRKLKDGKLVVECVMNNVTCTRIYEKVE
# Sequence of UniProt Q13347 (Q13347 whole entry, looked up): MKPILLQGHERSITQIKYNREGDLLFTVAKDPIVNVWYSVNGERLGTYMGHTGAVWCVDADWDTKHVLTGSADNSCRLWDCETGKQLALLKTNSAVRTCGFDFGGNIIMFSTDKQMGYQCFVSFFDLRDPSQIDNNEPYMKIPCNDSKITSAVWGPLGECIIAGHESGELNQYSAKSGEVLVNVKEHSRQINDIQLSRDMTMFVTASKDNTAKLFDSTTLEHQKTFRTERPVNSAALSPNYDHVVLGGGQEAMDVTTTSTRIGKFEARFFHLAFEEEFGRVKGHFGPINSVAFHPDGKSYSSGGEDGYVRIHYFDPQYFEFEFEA
# Sequence of UniProt O60841 (O60841 whole entry, looked up): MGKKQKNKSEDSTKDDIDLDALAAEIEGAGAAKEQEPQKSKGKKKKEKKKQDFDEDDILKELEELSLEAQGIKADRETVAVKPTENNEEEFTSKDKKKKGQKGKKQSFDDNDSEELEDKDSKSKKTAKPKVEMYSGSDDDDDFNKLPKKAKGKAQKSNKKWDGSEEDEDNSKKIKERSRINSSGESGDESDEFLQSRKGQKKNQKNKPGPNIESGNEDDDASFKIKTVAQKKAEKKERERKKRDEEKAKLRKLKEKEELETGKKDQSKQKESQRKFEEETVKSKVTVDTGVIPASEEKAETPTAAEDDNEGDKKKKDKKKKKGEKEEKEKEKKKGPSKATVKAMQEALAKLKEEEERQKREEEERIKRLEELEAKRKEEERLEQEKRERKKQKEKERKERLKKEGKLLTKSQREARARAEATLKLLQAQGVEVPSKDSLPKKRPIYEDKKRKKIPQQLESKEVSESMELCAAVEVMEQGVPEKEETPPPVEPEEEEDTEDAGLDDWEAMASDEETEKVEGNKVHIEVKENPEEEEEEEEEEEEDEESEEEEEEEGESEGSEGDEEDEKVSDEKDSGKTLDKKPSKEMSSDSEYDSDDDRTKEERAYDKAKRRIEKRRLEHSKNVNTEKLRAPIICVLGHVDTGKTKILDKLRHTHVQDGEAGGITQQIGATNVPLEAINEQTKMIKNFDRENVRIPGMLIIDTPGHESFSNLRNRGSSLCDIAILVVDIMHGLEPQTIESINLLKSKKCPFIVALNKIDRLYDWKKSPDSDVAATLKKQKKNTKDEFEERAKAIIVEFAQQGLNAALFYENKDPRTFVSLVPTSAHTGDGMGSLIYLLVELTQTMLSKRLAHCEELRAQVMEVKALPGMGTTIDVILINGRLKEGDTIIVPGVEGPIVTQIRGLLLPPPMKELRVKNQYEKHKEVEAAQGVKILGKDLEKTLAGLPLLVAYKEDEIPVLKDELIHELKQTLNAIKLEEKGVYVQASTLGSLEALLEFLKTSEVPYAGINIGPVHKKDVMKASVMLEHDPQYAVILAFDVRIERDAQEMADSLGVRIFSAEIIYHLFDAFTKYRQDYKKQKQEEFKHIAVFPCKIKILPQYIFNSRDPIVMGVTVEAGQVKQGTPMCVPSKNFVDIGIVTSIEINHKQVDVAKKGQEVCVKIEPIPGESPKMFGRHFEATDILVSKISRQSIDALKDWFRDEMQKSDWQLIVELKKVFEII
# Sequence of UniProt Q9BZQ8 (Q9BZQ8 whole entry, looked up): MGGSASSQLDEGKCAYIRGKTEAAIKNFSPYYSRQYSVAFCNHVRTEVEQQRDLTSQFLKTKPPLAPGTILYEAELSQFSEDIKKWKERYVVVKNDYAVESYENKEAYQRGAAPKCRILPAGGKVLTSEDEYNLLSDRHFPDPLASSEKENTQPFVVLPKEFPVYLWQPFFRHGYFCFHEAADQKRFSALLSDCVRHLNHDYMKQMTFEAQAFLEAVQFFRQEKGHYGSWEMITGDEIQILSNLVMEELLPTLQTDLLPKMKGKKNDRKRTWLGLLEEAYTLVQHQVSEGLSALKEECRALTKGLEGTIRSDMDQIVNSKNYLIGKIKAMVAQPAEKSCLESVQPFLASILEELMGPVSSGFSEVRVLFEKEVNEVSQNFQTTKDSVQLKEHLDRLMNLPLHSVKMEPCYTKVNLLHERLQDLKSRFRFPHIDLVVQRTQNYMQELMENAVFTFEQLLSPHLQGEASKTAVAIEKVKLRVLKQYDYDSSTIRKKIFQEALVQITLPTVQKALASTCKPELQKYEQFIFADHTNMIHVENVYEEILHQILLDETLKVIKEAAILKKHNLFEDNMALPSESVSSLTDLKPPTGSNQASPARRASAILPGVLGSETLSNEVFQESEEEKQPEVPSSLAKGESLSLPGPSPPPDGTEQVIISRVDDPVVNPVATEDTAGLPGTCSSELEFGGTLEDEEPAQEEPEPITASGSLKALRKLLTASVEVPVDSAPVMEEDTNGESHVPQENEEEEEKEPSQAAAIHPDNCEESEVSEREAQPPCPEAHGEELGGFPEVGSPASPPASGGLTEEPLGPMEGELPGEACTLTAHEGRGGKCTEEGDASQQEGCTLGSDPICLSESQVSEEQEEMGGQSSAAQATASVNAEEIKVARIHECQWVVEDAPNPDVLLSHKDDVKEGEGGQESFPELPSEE
# Sequence of UniProt O75530 (O75530 whole entry, looked up): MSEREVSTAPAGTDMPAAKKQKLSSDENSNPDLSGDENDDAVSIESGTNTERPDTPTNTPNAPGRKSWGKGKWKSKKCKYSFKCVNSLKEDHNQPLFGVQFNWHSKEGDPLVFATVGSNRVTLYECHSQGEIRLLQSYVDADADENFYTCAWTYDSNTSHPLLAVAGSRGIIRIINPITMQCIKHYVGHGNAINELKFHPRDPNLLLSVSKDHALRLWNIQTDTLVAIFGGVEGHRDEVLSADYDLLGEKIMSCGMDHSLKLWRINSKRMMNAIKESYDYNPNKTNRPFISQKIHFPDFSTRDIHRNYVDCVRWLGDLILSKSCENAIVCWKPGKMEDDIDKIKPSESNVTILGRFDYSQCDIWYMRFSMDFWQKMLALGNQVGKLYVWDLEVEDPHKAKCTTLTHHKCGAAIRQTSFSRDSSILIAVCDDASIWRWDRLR
Target,probe-labelled cysteine peptide fold change (10 µM),probe-labelled cysteine peptide fold change (50 µM)
FAM129A_Q9BZQ8_891_IHECQWVVEDAPNPDVLLSHKDDVK (UniProt Q9BZQ8),-0.122,-0.306
FAM3C_Q92520_185_DNWVFCGGK (UniProt Q92520),0.0668,0.0708
FBXL18_Q96ME1_406_HLCQLLAR (UniProt Q96ME1),-0.0499,0.00154
EGLN1_Q9GZT9_266_EPGCETIGLLMSSMDDLIR (UniProt Q9GZT9),0.585,0.341
FYCO1_Q9BQS8_928_ERVEEALACAVQELQDAK (UniProt Q9BQS8),0.00402,-0.00394
FUS_P35637_433_CPNPTCENMNFSWR (UniProt P35637),-0.0606,-0.0258
FABP5_Q01469_127_LVVECVMNNVTCTR (UniProt Q01469),0.0403,0.0166
FKBP3_Q00688_133_KGDVVHCWYTGTLQDGTVFDTNIQTSAKK (UniProt Q00688),-0.291,-0.0697
EIF5B_O60841_853_RLAHCEELR (UniProt O60841),0.132,0.127
FKBP5_Q13451_394_LQISMCQK (UniProt Q13451),-0.0666,-0.157
FCHSD1_Q86WN1_88_CLLDATVAGGQTR (UniProt Q86WN1),0.155,-0.0769
ERCC4_Q92889_723_GIDIEPVTLEVGDYILTPEMCVER (UniProt Q92889),-0.0833,-0.0298
FBXO3_Q9UK99_136_EGAREEDLDAVEAQIGCK (UniProt Q9UK99),-0.113,-0.0991
ETF1_P62495_302_YCFGVEDTLK (UniProt P62495),0.296,0.118
F11R_Q9Y624_74_LVCYNNK (UniProt Q9Y624),0.0292,0.141
FBXO22_Q8NEZ5_7_MEPVGCCGECR (UniProt Q8NEZ5),0.891,0.848

Target,probe-labelled cysteine peptide fold change (10 µM),probe-labelled cysteine peptide fold change (50 µM)
FLNA_P21333_2378_VHSPSGALEECYVTEIDQDK (UniProt P21333),0.593,0.639
EED_O75530_324+330_SCENAIVCWKPGK (UniProt O75530),0.0705,0.0442
EIF3A_Q14152_160_QCLDLLR (UniProt Q14152),0.00482,0.157
EXD2_Q9NVH0_133_ASPLSLLQMASPSGLCVLVR (UniProt Q9NVH0),-0.255,-0.992
FBL_P22087_268_ANCIDSTASAEAVFASEVKK (UniProt P22087),-0.00811,0.0128
EIF3I_Q13347_99_TCGFDFGGNIIMFSTDK (UniProt Q13347),0.0398,-0.0272
FANCI_Q9NVI1_908_SISLLCLEGLQK (UniProt Q9NVI1),-0.114,0.0111
EFEMP1_Q12805_338_TCQDINECETTNECREDEMCWNYHGGFR (UniProt Q12805),0.561,0.0993
FMC1_Q96HJ9-2_414_DQDLASCDRDR<|>LUC7L2_Q9Y383_348_DQDLASCDRDR (UniProt Q9Y383+Q96HJ9),-0.661,0.0136
FAM98A_Q8NCA5_126_MLCVNAPPK (UniProt Q8NCA5),-0.0668,-0.0637
FKBP4_Q02790_342_LQAFSAAIESCNK (UniProt Q02790),0.0532,0.0437
FARS2_O95363_413_TSHCYR (UniProt O95363),0.0791,0.184
ETV6_P41212_452_TDRLEHLESQELDEQIYQEDEC (UniProt P41212),-0.183,-0.279
FUBP1_Q96AE4_148_SCMLTGTPESVQSAKR (UniProt Q96AE4),-0.259,-0.0811
FUCA2_Q9BTY2_455_LLGHGQPLNWISLEQNGIMVELPQLTIHQMPCK (UniProt Q9BTY2),0.558,-0.0872
